Inconclusive means that the source gave no clear call. Such entries were picked first, then a sample of the others. For some of these results: No potency is given beside an inconclusive call; the fits are too rough. The source made the active and inactive calls. Unless noted, calls come from the whole dose curve; as a rule, active = well fitted curve in the direction sought with a large enough effect; inconclusive = small, poorly fitted or top-dose-only effect, or another doubt; inactive = no such curve, though single readings can be large; an effect the other way counts as inactive or inconclusive.
Columns and labels:
[1] = NFAT Signaling Pathway (AID 444; active = well fitted curve in either direction with a large enough effect, not every such curve was filed as active; inconclusive = small, poorly fitted or top-dose-only effect, or another doubt;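 note: carbachol stimulus at about its EC50 of 1 µM final; % is set by controls: 0 for no effect and ±100 for the full control effect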); conditions: Jurkat NFAT-bla M1, carbachol, beta-lactamase ratio, 5 h; at 7.69 µM (top of the series) unless noted
Method in brief: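 Jurkat cells carrying an NFAT-driven β-lactamase reporter and co-transfected muscarinic M1 receptor were treated with compound plus carbachol (1 uM final, an EC50 level) for 5 h at 37 °C. CCF4 loading followed for 1 h at RT; 460/530 nm ratio gave %activity.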

[2] = molecular target: 3',5'-cyclic-AMP phosphodiesterase 4B (Homo sapiens) (UniProt Q07343); assay: qHTS Assay for Inhibitors of PDE-IV (AID 607; active = well fitted activation curve with a large enough effect in the main read-out, with a control signal flat, not every such curve was filed as active; inconclusive = small, poorly fitted or top-dose-only effect, or effect the other way, or a change in a side signal; note: potency is the fitted concentration of half-maximal effect; for activation (PDE inhibition): % of control where 0% means no effect); conditions: HEK293 ACTOne CNG channel cells, membrane potential fluorescence; activation (PDE inhibition): at 22.9 µM (top of the series)
Chain of UniProt Q07343 (Q07343 whole entry, looked up): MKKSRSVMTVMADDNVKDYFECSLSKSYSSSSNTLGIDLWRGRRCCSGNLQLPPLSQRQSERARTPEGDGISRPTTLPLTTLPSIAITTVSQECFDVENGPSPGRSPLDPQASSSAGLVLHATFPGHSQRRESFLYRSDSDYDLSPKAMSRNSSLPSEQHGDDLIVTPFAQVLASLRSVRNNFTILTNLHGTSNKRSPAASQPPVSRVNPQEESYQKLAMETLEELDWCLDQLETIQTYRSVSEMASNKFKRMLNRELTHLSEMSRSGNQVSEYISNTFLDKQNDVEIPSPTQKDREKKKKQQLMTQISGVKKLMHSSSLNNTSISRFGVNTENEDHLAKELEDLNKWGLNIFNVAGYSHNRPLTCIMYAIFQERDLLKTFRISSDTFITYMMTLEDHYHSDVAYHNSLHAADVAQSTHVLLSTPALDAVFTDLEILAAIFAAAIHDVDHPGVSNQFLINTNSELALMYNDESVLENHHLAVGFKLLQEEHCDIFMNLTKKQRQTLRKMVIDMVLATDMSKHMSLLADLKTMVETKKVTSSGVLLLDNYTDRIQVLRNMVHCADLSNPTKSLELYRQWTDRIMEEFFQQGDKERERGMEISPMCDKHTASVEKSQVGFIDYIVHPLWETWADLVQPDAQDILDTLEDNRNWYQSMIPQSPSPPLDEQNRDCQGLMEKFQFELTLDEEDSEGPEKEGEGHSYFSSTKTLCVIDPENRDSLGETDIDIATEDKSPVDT
Method in brief: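 HEK293 ACTOne cells with CNG channel (1000/well), endogenous PDE4; membrane potential dye, compounds up to 22.9 uM final. Fluorescence Ex 535/Em 590; RO 20-1724 (100 uM final) as reference.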

[3] = molecular target: Cytochrome P450 2D6 (Homo sapiens) (UniProt P10635); assay: qHTS Assay for Inhibitors and Substrates of Cytochrome P450 2D6 (AID 891);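 note: luciferin methyl ether substrate demethylated by CYP2D6 with NADPH regeneration; potency is the fitted concentration of half-maximal effect; nearly all actives have a fitted effect of over 60% in size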
Chain of UniProt P10635 (P10635 whole entry, looked up): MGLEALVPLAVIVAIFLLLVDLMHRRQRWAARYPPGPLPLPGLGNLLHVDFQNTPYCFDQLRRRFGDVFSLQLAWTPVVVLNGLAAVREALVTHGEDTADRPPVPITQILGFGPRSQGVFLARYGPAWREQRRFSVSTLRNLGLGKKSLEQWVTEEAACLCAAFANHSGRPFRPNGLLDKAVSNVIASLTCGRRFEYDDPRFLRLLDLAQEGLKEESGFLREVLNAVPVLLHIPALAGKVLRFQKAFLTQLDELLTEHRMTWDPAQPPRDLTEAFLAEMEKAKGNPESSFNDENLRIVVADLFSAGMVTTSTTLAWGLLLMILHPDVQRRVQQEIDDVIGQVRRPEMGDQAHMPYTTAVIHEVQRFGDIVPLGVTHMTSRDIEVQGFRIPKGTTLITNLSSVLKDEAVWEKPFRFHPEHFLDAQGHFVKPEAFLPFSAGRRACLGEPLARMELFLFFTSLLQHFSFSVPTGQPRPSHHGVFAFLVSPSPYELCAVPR
Method in brief: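 Human CYP2D6 (5 nM) with 30 uM Luciferin-ME EGE (at Km) in 100 mM KPO4, compound preincubated 10 min, then NADPH regeneration system for 60 min at room temperature. Luciferin read by luminescence; normalized to 1.43 uM quinidine.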

[4] = molecular target: Ubiquitin carboxyl-terminal hydrolase 1 (Homo sapiens) (UniProt O94782); assay: Inhibitors of USP1/UAF1: Pilot qHTS (AID 504865);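 note: rhodamine fluorescence freed from ubiquitin-rhodamine substrate followed over time; potency is the fitted concentration of half-maximal effect; nearly all actives have a fitted effect of over 35% in size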
Chain of UniProt O94782 (O94782 whole entry, looked up): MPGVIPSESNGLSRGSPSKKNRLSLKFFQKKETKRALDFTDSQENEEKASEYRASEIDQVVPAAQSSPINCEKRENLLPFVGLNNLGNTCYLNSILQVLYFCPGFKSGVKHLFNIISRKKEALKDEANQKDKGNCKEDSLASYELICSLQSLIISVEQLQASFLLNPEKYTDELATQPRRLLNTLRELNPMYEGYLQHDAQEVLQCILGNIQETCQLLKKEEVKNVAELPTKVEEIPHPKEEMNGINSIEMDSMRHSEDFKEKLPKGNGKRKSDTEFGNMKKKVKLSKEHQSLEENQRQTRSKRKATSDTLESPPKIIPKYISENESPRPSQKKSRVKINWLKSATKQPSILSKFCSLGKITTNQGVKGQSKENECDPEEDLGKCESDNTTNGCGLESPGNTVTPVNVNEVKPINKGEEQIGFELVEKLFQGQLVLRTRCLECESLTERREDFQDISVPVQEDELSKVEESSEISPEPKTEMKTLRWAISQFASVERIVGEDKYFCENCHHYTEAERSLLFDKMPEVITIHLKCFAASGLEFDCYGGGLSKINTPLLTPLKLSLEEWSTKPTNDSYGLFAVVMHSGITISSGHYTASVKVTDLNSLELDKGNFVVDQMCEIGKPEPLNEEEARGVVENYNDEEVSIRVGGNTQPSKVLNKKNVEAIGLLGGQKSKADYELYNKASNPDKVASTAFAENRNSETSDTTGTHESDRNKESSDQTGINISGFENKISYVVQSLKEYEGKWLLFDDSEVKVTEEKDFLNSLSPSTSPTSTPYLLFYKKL
Method in brief: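 Enzyme-free wells gave the negative control, while test wells held 1nM USP1/UAF1 preincubated with compound for 15 min at room temperature. Ub-Rho at 150nM final started the reaction, and fluorescence at 480/540 nm was recorded kinetically.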

[5] = Primary qHTS for small molecule stabilizers of the endoplasmic reticulum resident proteome: Secreted ER Calcium Modulated Protein (SERCaMP) assay (AID 1508630); conditions: SH-SY5Y GLuc-SERCaMP (Gaussia luciferase released on ER calcium loss) secretion, thapsigargin, luminescence; activity change, negative = inhibition: at 38.4 µM (top of the series) unless noted; note: potency is the fitted concentration of half-maximal effect; for activity change, negative = inhibition: % is set by controls: 0 for no effect and ±100 for the full control effect
Method in brief: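 GLuc-SERCaMP-expressing SH-SY5Y cells, pretreated 16 h with compound, are challenged with thapsigargin to empty ER calcium stores; after 4 h, coelenterazine is added directly to the medium and luminescence is imaged.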

[6] = molecular target: Cytochrome P450 3A4 (Homo sapiens) (UniProt P08684); assay: qHTS Assay for Inhibitors and Substrates of Cytochrome P450 3A4 (AID 884); conditions: recombinant CYP3A4, Luciferin-PPXE luminescence; activity change, negative = inhibition: at 57.1 µM (top of the series); note: potency is the fitted concentration of half-maximal effect; nearly all actives have a fitted effect of over 50% in size
Chain of UniProt P08684 (P08684 whole entry, looked up): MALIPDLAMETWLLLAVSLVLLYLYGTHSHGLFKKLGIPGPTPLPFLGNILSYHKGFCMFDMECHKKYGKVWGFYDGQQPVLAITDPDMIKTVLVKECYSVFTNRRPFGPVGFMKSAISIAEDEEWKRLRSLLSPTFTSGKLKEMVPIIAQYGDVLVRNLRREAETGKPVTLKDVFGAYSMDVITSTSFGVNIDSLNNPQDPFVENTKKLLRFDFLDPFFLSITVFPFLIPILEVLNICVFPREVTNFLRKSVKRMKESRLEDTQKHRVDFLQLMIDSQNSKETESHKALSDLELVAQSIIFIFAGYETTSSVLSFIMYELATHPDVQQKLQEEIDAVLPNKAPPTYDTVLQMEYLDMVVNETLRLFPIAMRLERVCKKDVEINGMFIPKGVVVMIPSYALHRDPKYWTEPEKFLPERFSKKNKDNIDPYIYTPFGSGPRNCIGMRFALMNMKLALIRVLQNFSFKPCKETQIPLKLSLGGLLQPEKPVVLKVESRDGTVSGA
Method in brief: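 20 nM human CYP3A4 with 25 uM Luciferin-PPXE (at KM) in 200 mM KPO4, preincubated 10 min with compound; NADPH regeneration started a 60 min RT reaction. Luciferin detected by luminescence, normalized to 57 uM ketoconazole as full inhibition.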

[7] = qHTS Assay for Identification of Small Molecule Agonists for Hypoxia Response Element Signaling Pathway (AID 914; active = well fitted activation curve with a large enough effect in the signal ratio, with a control signal flat, not every such curve was filed as active; inconclusive = small, poorly fitted or top-dose-only effect, or effect the other way, or a change in a side signal; the % refers to the signal ratio; note: potency is the fitted concentration of half-maximal effect; for activation: top concentration of the series differs between compounds; % of control where 0% means no effect); conditions: ME-180 (cervical carcinoma) HRE-bla reporter, beta-lactamase ratio, CoCl2, 17 h; activation: active compounds read high
Method in brief: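 Reporter activity (beta-lactamase, CCF4 460nm/530nm ratio) in HRE-bla ME-180 cells is recorded after 17 h compound exposure with EC50 CoCl2 at 37 degrees Celsius. AC50 values come from titration data.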

[8] = molecular target: Mitogen-activated protein kinase 10 (Mus musculus) (UniProt Q61831); assay: JNK3 AlphaScreen Assay (AID 530; active = well fitted curve in either direction with a large enough effect, not every such curve was filed as active; inconclusive = small, poorly fitted or top-dose-only effect, or another doubt;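 note: kinase came from lysate of stimulated human HepG2 cells; signal reports phosphorylation of biotinylated GST-cJun 1-79 at Ser73 with 10 µM ATP; potency is the fitted concentration of half-maximal effect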); conditions: JNK3 lysate, c-Jun phosphorylation; activity change, negative = inhibition: at 57.1 µM (top of the series)
Method in brief: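 Inhibitors reduce antibody binding to phosphorylated biotin-cJun, lowering AlphaScreen luminescence. Lysates from HepG2 cells pre-activated by IL-1beta plus TNF-alpha supplied JNK3; compounds were titrated.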

[9] = molecular target: Cytochrome P450 2C9 (Homo sapiens) (UniProt P11712); assay: qHTS Assay for Inhibitors and Substrates of Cytochrome P450 2C9 (AID 883); note: potency is the fitted concentration of half-maximal effect; nearly all actives have a fitted effect of over 60% in size
Chain of UniProt P11712 (P11712 whole entry, looked up): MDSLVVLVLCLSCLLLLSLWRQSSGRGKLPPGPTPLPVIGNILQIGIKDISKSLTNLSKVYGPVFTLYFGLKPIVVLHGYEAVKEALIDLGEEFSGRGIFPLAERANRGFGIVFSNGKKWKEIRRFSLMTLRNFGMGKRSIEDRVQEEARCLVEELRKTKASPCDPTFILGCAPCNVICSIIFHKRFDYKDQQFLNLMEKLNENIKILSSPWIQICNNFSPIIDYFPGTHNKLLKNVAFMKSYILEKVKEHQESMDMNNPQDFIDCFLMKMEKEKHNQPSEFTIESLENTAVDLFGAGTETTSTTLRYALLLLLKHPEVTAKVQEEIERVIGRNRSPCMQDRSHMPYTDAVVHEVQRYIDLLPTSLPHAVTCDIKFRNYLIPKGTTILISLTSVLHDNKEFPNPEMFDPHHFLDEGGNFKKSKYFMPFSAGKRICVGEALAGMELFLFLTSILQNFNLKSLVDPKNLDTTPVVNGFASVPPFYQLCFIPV
Method in brief: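 Human CYP2C9 (10nM) hydroxylated Luciferin-H (100uM, at its KM) to luciferin in 25mM KPO4. Compound was preincubated 10 min at 37C, then NADPH regeneration started a 60 min reaction at 37C. Luminescence was read after detection reagent, normalized to 57uM sulphaphenazole.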

[10] = molecular target: Cytochrome P450 2C19 (Homo sapiens) (UniProt P33261); assay: qHTS Assay for Inhibitors and Substrates of Cytochrome P450 2C19 (AID 899); note: potency is the fitted concentration of half-maximal effect; nearly all actives have a fitted effect of over 60% in size
Chain of UniProt P33261 (P33261 whole entry, looked up): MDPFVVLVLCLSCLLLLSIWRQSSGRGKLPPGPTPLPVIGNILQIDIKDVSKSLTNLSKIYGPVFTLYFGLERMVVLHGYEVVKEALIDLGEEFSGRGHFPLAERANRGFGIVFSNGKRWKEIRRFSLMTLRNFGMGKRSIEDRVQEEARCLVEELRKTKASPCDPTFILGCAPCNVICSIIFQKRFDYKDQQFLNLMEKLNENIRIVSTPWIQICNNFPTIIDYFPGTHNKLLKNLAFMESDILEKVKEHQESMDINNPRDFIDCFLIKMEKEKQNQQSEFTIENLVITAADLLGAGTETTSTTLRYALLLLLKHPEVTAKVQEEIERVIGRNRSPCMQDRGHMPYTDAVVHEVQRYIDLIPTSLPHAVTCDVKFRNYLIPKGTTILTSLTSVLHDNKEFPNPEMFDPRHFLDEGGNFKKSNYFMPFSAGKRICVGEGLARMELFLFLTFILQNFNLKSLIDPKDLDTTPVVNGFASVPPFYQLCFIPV
Method in brief: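 Human CYP2C19 (5nM) with Luciferin-H EGE at 10uM (its KM) in 50mM KPO4 was preincubated with compound for 10 min at 37C. NADPH regeneration started a 60 min 37C reaction. Luciferin was read by luminescence, normalized to 57uM ketoconazole.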
Tags give direction and shape of the fitted curve or compound fluorescence and quenching.

CN(Cc1ccco1)c1nc(-c2ccccc2C(F)(F)F)nc2ccccc12
activity change, negative = inhibition [1]: inconclusive: -45.3% [inhibitor] | Potency [2]: inconclusive [activator, partial curve] | Potency [3]: active: 7.94 µM | Potency [4]: active: 28.2 µM | Potency [5]: inconclusive [inhibitor, single point]

c1cncc(CNc2nc(-c3ccoc3)nc3ccccc23)c1
activity change, negative = inhibition [1]: inactive: -9.01% | Potency [2]: inconclusive [activator, partial curve] | Potency [6]: active: 7.94 µM | Potency [4]: active: 44.7 µM | Potency [5]: inactive

Cc1ccccc1-c1nc(N2CCOCC2)c2ccccc2n1
activity change, negative = inhibition [1]: inactive: -2.19% | Potency [2]: inconclusive [activator, partial curve] | activation [7]: inactive: 11% | Potency [4]: active: 28.2 µM | Potency [5]: inconclusive [inhibitor, single point]

CN(C)c1ncc2nc(CCc3ccccc3)c(=O)n(C3CC3)c2n1
activity change, negative = inhibition [1]: inconclusive: 13.6% [inhibitor] | Potency [2]: inconclusive [activator, single point] | Potency [5]: inactive

COc1ccc(C(=O)N2CCC[C@@]3(CCN(c4ccccc4)C3)C2)cc1
activity change, negative = inhibition [1]: inactive: -9.66% | Potency [8]: inconclusive [inhibitor, single point] | Potency [2]: inconclusive [activator, partial curve] | Potency [6]: inconclusive [inhibitor, partial curve] | Potency [7]: inconclusive [inhibitor, partial curve] | Potency [5]: inconclusive [inhibitor, single point]

COc1ccc(-c2nc3cnc(OC)nc3n(Cc3cccs3)c2=O)cc1
activity change, negative = inhibition [1]: inactive: 8.9% | Potency [2]: inconclusive [activator, partial curve] | Potency [9]: inconclusive [inhibitor, partial curve] | Potency [3]: inconclusive [inhibitor, full curve] | Potency [7]: inconclusive [activator, single point] | Potency [5]: inconclusive [inhibitor, single point]

Cc1noc(C)c1C(=O)N1CCC[C@@]2(CCN(Cc3cc(C(F)(F)F)cc(C(F)(F)F)c3)C2)C1
activity change, negative = inhibition [1]: inactive: 14.8% | Potency [6]: inconclusive [inhibitor, full curve] | Potency [5]: inconclusive [inhibitor, single point]

COc1ccccc1CCn1c(=O)c(-c2ccccc2)nc2cncnc21
activity change, negative = inhibition [1]: inactive: -9.96% | Potency [2]: inconclusive [activator, partial curve] | Potency [5]: inconclusive [inhibitor, single point]

COCC(=O)N1CCC2(CCCN(C(c3ccccc3)c3ccccc3)C2)CC1
activity change, negative = inhibition [1]: inconclusive: -32.2% [inhibitor] | Potency [2]: inactive | Potency [5]: inactive

CN(C)Cc1ccccc1-c1cc(N(C)Cc2ccco2)ncn1
activity change, negative = inhibition [1]: inconclusive: -58.6% [inhibitor] | Potency [2]: inactive | Potency [3]: active: 7.94 µM | Potency [5]: inactive

CN1CCN(c2ncc3nc(-c4ccccc4)c(=O)n(C)c3n2)CC1
activity change, negative = inhibition [1]: inactive: 23.4% | Potency [2]: inactive | Potency [7]: inconclusive [activator, single point] | Potency [5]: inconclusive [inhibitor, single point]

Cc1nc2cnc(Oc3ccccc3)nc2n(CCc2ccccc2)c1=O
activity change, negative = inhibition [1]: inconclusive: -33.8% [inhibitor] | Potency [2]: inconclusive [activator, single point] | Potency [5]: inconclusive [inhibitor, single point]

O=C(c1cc(C(F)(F)F)cc(C(F)(F)F)c1)N1CCC[C@@]2(CCN(c3ccccn3)C2)C1
activity change, negative = inhibition [1]: inconclusive: -33.7% [inhibitor] | Potency [2]: inconclusive [activator, partial curve, poor fit] | Potency [5]: inconclusive [inhibitor, partial curve, poor fit]

CN(C)Cc1ccccc1-c1ccc2ncnc(N(C)Cc3ccco3)c2c1
activity change, negative = inhibition [1]: inconclusive: -59% [inhibitor] | Potency [2]: inconclusive [activator, single point] | Potency [5]: inconclusive [inhibitor, single point]

Cc1cccc(CNc2ccnc(-c3ccc(C(=O)N(C)C)cc3)n2)c1
activity change, negative = inhibition [1]: inactive: 6.95% | Potency [2]: inconclusive [activator, partial curve, poor fit] | Potency [5]: inconclusive [inhibitor, single point]

CN1CCN(c2nc(-c3cccc(NS(C)(=O)=O)c3)nc3ccccc23)CC1
activity change, negative = inhibition [1]: inactive: 7.49% | Potency [2]: inconclusive [activator, partial curve] | Potency [5]: inconclusive [inhibitor, single point]

Clc1ccccc1-c1nc(-n2ccnc2)c2ccccc2n1
activity change, negative = inhibition [1]: inactive: -17.9% | Potency [2]: inconclusive [activator, partial curve] | Potency [10]: active: 7.94 µM | Potency [5]: inconclusive [inhibitor, single point]

O=C(O)C1CCN(c2ncnc3ccc(-c4ccccc4C(F)(F)F)cc23)CC1
activity change, negative = inhibition [1]: inactive: 6.97% | Potency [2]: inconclusive [activator, partial curve] | Potency [5]: inactive

COc1cccc(Cn2c(=O)c(C)nc3cnc(Oc4cccc(Cl)c4)nc32)c1
activity change, negative = inhibition [1]: inactive: -7.01% | Potency [2]: inconclusive [activator, full curve, poor fit] | activation [7]: inconclusive: -29.7% | Potency [5]: inconclusive [inhibitor, single point]

From PubChem BioAssay (NCATS)
